Values joined by “and” are separate entries in the source; they are usually repeats but may differ in a detail not shown here. Identical values can stand only once.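 Dose response: 5 concentrations. Exposure: 48 h. Format: 96-well plates. Endpoint: linear interpolation; highest concentration if not reached. GI50 marks 50% less growth. TGI: concentration producing complete growth inhibition.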
Test system: NCI-H322M lung
Experiment: growth of human tumour cells (NCI), 48 h

Compound	TGI	GI50
N#CNC(N)=Nc1ccc(Cl)cc1	> 100 µM	–
O=C(O)[C@H](c1ccccc1)[C@@H](C(=O)O)c1ccccc1	> 100 µM	–
CC(=O)OCc1c(O)c2c(c(O)c1COC(C)=O)C(=O)C=CC2=O	40.9 µM	–
CNC(=O)CCCNC(=O)CCCC(=O)N(C)C	> 100 µM	–
CCOC(=O)C1CCC(=O)N1C(=O)c1ccccc1 (stereo not given)	> 100 µM	–
O=C(N/N=C/c1cccc(F)c1)c1ccncc1	> 100 µM	–
CSC1=Nc2ccccc2N=C(c2ccc(Cl)cc2)C1	> 100 µM	–
COc1ccc(NC(=S)NC(=O)c2ccc3c(c2)Sc2ccccc2O3)c([N+](=O)[O-])c1	> 100 µM	–
OC(c1cc2ccc(C(F)(F)F)cc2c2cc(C(F)(F)F)ccc12)C1CCCCN1 (stereo not given)	3.44 µM	–
CCN(C(=O)/C=C/c1ccco1)c1ccccc1	> 100 µM	–
Cc1c2ccccc2cc2ccc3oc([N+](=O)[O-])cc3c12	> 100 µM	–
CCC(=O)Nc1nc2c(ncn2C2OC(COC(=O)CC)C(OC(=O)CC)C2OC(=O)CC)c(=O)[nH]1 (stereo not given)	> 100 µM	–
COc1cc2c(cc1OC)C(C(=O)c1cccc(OC)c1OC)C(=O)N(C)CC2 (stereo not given)	> 100 µM	–
C\C(=N/N=C1/C(=C\N(C)C)C(=O)NC(=O)N1C)c1ccc(Cl)cc1	> 100 µM	–
CSc1n[nH]c(N)c1C(=O)Nc1ccccc1	> 100 µM	–
O=C(C(Cl)=C(N1CCOCC1)N1CCOCC1)C(Cl)Cl	> 100 µM	–
COc1ccc(N(C(=O)Nc2ccc(Cl)c(Cl)c2)C2c3cccn3C(=O)N2c2ccc(Cl)c(Cl)c2)cc1 (stereo not given)	> 100 µM	–
CCON1CC(C(=O)OC)=C(O)C1=O	> 100 µM	–
C(=N\Nc1nnn(Cc2ccccc2)n1)/c1ccccc1	> 100 µM	> 100 µM
O=C1CCCCN1CCCCC#Cc1cccc(C#Cc2cccnc2)c1	> 100 µM	> 100 µM
c1c2c(cc(-n3nnc4c3CCCCCC4)c1-n1nnc3c1CCCCCC3)CCCCCC2	25.5 µM	–
C=C1C(=O)O[C@H]2[C@H]1CC/C(C=Nc1c(N)cc(C(F)(F)F)cc1Br)=C\CC[C@@]1(C)O[C@@H]21	12.7 µM	2.98 µM
NC(=O)N/N=C1\CC2C3CC4C2C4C13 (stereo not given)	> 100 µM	–
CC1(C)CC2C(=O)c3ccccc3NC2c2ccccc21 (stereo not given)	> 100 µM	–
CC(=O)c1cnc2oc3ccc(O)cc3c2c1-c1ccccc1	> 100 µM	–
Cc1cc(N(CCC#N)CCC#N)ccc1/C=C(\NC(=O)/C=C/c1ccccc1)C(=O)NN	> 100 µM	–

Compound	TGI	GI50
COc1ccc(CN2C3CC2CN(c2ccc(-c4cc(OCC(C)(C)O)cn5ncc(C#N)c45)cn2)C3)cn1	> 100 µM	> 100 µM
O=c1cc(N2CCCC2)[nH]c(=O)n1-c1ccccc1	> 100 µM	–
COc1ccc(CN2CCC/C=C/CC(Cl)(Cl)C2=O)cc1	> 100 µM	–
c1ccc(N2N=C(c3ccco3)CC2c2ccco2)cc1 (stereo not given)	> 100 µM	–
O=C1c2ccccc2NC(=S)[C@@H]2CCCN12	> 100 µM	–
CC(NC(=O)N(C)C)NC(=O)N(C)C	> 10 µM	–
Cc1cnc2c(c1)C(=O)C1=C(C2=O)C2OC(=O)CC2OC1(C)C (stereo not given)	5.4 µM	–
CC(=O)OC(Cn1cncn1)(Cn1cncn1)c1ccc(Cl)cc1Cl	> 100 µM	–
C=C(CN(C)C)C(=O)c1ccccc1[N+](=O)[O-]	> 100 µM and 35.5 µM	19.4 µM
Cc1ccccc1NC(=O)C1C(=O)N(c2ccccc2C)C(=O)/C1=N\NC(N)=S (stereo not given)	> 100 µM	–
C[C@]12CC[C@@H]3c4cc(I)c(O)cc4CC[C@H]3[C@@H]1CC[C@@H]2O	18.6 µM	–
CC(=O)OC1CCC2C3CCc4c(C)ccc(OS(=O)(=O)c5ccccc5)c4C3CCC12C (stereo not given)	> 100 µM	–
Cc1ccc(/C=C2\Cc3c(C)cc(C)cc3C2=O)c(C(=O)O)c1	> 100 µM	–
O=c1cc(-c2ccccc2)oc2c(-c3cc(Cl)cc4c(=O)cc(-c5ccccc5)oc34)cc(Cl)cc12	> 100 µM	–
Cc1ccc(NC(=O)c2cc(S(=O)(=O)N3C(=O)NC(=O)NS3(=O)=O)c(S)cc2Cl)cc1	75.2 µM	26.5 µM
Nc1ncnc2c1ncn2CC(O)CO (stereo not given)	> 100 µM	–
CC(C(=O)O)C(C)(O)C(=O)O (stereo not given)	> 100 µM	–
C=C1c2nc3ccccc3n2C=C(c2ccc(Cl)cc2)N1c1ccc(OC)cc1	> 100 µM	–
CN(C)C(=S)/N=c1\ssc(=S)n1Cc1ccncc1	> 100 µM	–
COC(=O)C(/C(=N\O)C(=O)Nc1cccc(Cl)c1C)c1cnc2ccccc2n1 (stereo not given)	> 100 µM	–
CC(C)(C)OC(=O)NCCCCCCCn1c2c(c3ccccc3c1=O)C(=O)c1ccccc1-2	> 100 µM	> 100 µM
O=C(N/N=C/c1ccc(Br)cc1)N/N=C/c1ccc(Br)cc1	> 100 µM	–
O=c1[nH]c(=O)n(C2CC(O)C(CO)O2)cc1OCc1ccccc1 (stereo not given)	> 100 µM	–
CSC(=S)N/N=C/c1nccc2ccccc12	63.8 µM	–
CCCSc1nc(-c2ccc(OC)cc2)c(C#N)c(=O)n1C1OC(COC(C)=O)C(OC(C)=O)C(OC(C)=O)C1OC(C)=O (stereo not given)	> 100 µM and 56.9 µM	> 100 µM and 20.9 µM
CC12CCCC3(CC(=O)C(C)(C)C3C(=O)C1)C2 (stereo not given)	> 100 µM	–
